B1: LINE1-full (parent)
chain: UACGUAGGUGGUUUUCCCCUGAUAGUGCUAAGGGGGCCUGGAAGUUUGGACUGGGCAGAGCUCAACACAGCGUGGCAAAGUGGCUGUGGCUAGACUGCCUCUCUGGAUUCCUCGUCACUCAGCAGGGCAUCUCUGAGAGAAAUGCC

The source gives no read counts; variants with many changes may rest on few reads.

Variants of B1 are the subject of the series. The series can be described thus: self-cleavage, relative activity (ratio to wild type); higher = more cleavage; in vitro, sequencing; the parent is a self-cleaving ribozyme.
With UACGUAGGUGGUUUUCCAUUGAUAGUGCUAAGGAGGCCUGGAAGUUUGGACUGGGCAGAUCUCAACACAGCGUGGCGAAGUGGCUGUGGCUAGACUGCCUCUCUGGAUUCCUCGUCACUCAGCAGGGCAUCUCUGAGAGAAAUGCC [C18A C19U G34A G60U A77G], the self-cleavage worked out at 0.05. UACGUAGGUGGUCUUCCCCUGAUAGUGCUAAGGGGGCCUGGAUGUUUGGACUGGGCAGAGCUCUACACAGCGUGGCAAAGUGGCUGUGGCUAGCCUGCCUCUCUGGAUUCCUCGUCACUCAGCAGGGCAUCUCUGAGAGAAAUGCC [U13C A43U A64U A94C]: the self-cleavage was determined as 0.04. In the case of UACGUAGGUGGUUUUCCCCUGAUAGUGCUAAGGGGGCCUGGAAGUUUGGGCUGGGCAGAGCUCAACACAGCGUGGCAAAGUGGCUGUGGCUAGACUGCCUCUCUGGAUCCCUCAUCACUCAGCAGGGCAUCUCUGGGGGAAAUGCC [A50G U109C G114A A136G A138G], the self-cleavage amounted to 0.61. Next, UACGUAGGUGGUUUUCCCCUGAUAGUGCUAAGGGGGCCUGGAAGUUUGGACUGGGCAGAGCUCAACACAGCGUGGCAAGGUGGCUGUGGCUAGACUGCCUCUCUGGAUUCCUAGUCACUCAGCAGGGCAUCUCCGAGAGAAAUGCC [A79G C113A U134C]: 0.82.

UACGUAGGUGGUUUUCCCCUGAUAGUGCUAAGGGAGCCUGGAAGUUUGGACUGGGCAGAGCUCAACACAGCGUGGCAAAGUGGCUGUGGCUAGACUGCCUCUCUGGAUCCCUCGCCACUCAGCAGGGCAUCUCUGAGAGAAAUGCC [G35A U109C U115C]: the self-cleavage was 0.66. Next, UACGUAGGUGGUUUUCCCCUGAUAGUGCUAAGGGGGUCUGGAAGUUUGGACUGGGCAGAGCUCAACACAGCGUGGCAAAGUGGCUGAGGCUAGACUGCCUCUCUGGAUUCCUCGUCACUCAGCAGGGCAUCUCCGAGGGAAAUGCC [C37U U87A U134C A138G]: 0.03; UACGUAGGUGGCUUUCCCCUGAUUGUGCUAUGGGGGCCUGGAAGUUUGGACUGGGCAGAGCCCAACACAGCGUGGCAAAGUGGCUGUGGCUAGACUGCCUCUCUGGAUUCCUCGUCACUCAGCAGGGCAUCUCUGAGAGAAAUGCC [U12C A24U A31U U62C]: 0. Turning to UACGUAGGUGGUUUUCCCCUGAUAGUGCUAAGGGGGCCUGGAAGUUUGGACUGGGCAGAGCUCAACACAGCUUGGCAAAGUGGCUGUGGCUAGACUGCCUCUCUGGAUUCCUCGUCACUCAGCAGGGCAUCUCUAAGAGAAGUGCC [G72U G135A A142G], the self-cleavage was 0.99. The value for UACGUAGGAGGUUUUCCCCUGAUAGUGCUAAGGGGGCCUGGAAGUUUGGACUGGGCAGUGCUCAACACAGCGUGGCAAAGUGGCUUUGGCUAGACUGCCUCUCUGGAUUCCUCGCCACUCAGCAGGGCAUCUCUGAGAGAAAUGCC [U9A A59U G86U U115C] was 0.15; that for UACGUAGGUGGUUUUCCCCUGAUAGUGCUAAGGGGGCCUGGAAGUUUGGACUGGGCAGAGCCCAACACAGCGUGGCAAAGUGGCUGUGGCUAGACUGCCCCUCUGGAUUCCUCGCCACUCAGCAGGGCAUCUCUGAGAGAAACGCC [U62C U100C U115C U143C] was 0. The value for UACGUAGGUGGUUUUCCCCUGAUAGUGCUAAGGGGGCCUGGAAGUUUGGACUGGGCAGAGCUCAACGCAGCGUGGCAAAGUGGCCGUGGCUAGACUGCCCCUCUGGAUUCCUCGUCACUCAGCAGGGCAUCUCUGAGAGAAAUGCC [A67G U85C U100C] was 1.25.

As for UACGUAGGUGGUUUUCCCCUGAUAGUGCUAAGGGGGCCUGGAAGUUUGGACUGGGCAGAGCUCAACACAGCGUGGCAAAGUGGCUGUGGCCUGACUACCUCUCUGGAUUCCUCGUAACUCAGCAGGGCAUCUCUGAGAGGAAUGCC [U91C A92U G97A C116A A140G], the self-cleavage is 0.02. The value for UACGUAGGUGGUUUUCCCCUGUUAGUGCUAAGGGGGCCUGGUAGUUUGGACUGGGCAGAGCUCAACACAGCGCGGCAAAGUGGCUGUGGCUAGACUGCCUCUCUGGAUUCCUCGUCACUCAGCAGGGCAUCUCUGAGGGAAAUGCC [A22U A42U U73C A138G] was 0.87. In the case of UACGUAGGUGGUUUUCCCCUGAUAGUGCUAAGGGGGCCUGGAAGUUUGGACUGGGCAGAGCACAACACAGCGUGGCAAAGUGGCAGUGGCUAGACUGCCUCUCUGGACUCCUCGUCACUCAGCAGGGCAUCUCUGAGGGAAAUGCC [U62A U85A U108C A138G], the self-cleavage is 0.

Regarding UACGUAGGUGGUUUUCCCCUGAUAGUGCUAAGGGGGCCUGGUAGUUUGGACUGGGCAGAGCUCAACACAGCGUGGCGAAGUGGCUGUGGCUAGACUGCCUCUCUGGACUCCUCGUCACUCAGCAGGGCAUCUCUGAGAGAAAUGCC [A42U A77G U108C], the self-cleavage worked out at 1.39.

On to UACGUAGGUGGUUUUCCCCUGAUAGUGCUAAGGGGGCCUGGUAGUUUGGACUGGGCAGAGCUCAACACUGCGUGGCAAAGUGGCUGUGGCUAGACUGCCUCUCUGGAUUCCUUGUCACUCGGCAGGGCAUCUCUGGGAGAAAUGCC [A42U A69U C113U A121G A136G], for which the self-cleavage is 0. Next, UACGUAGGUGGUUUACCCCUGAUAGUGCUAAGGGGGCCUGGAAGUUUGGACUGGGCAGAGCUCAACACAGCGUGGCAAGGUGGCUGUGGCUAGACUGCCUCUCUGGAUUCCUCGUCACUCAGCAGGGCUUCUCUGAGAGAAAUGCC [U15A A79G A129U]: 0.42; UACGUAGGUGGUCGUCCCCUAAUAGUGCUAAGGGGGCCUGGAAGCUUGGACUGGGCAGAGCUCAACACAGCGUGGCAAAGUGGCUGUGGCUAGACUGCCUCUCUGGAUUCCUCGUCACUCAGCAGGGCAUCUCUGAGAGAAAUGCC [U13C U14G G21A U45C]: 1.15. As to UACGUAGGUGGUUUUCCCUUGAUAGUGCUAAGGGGGCCUGGAAGCUUGGACUGGGCAGAGCUCAACACAGCGUGGCAAAGUGGCUGUGGCUAGACUGCCUCUCUGGAUUCCUCGUCACUCAGCAGGGCAUCUCUGGGAGAAAUGCC [C19U U45C A136G], the self-cleavage turned out to be 1.06. The value for UACGUAGGUGAUUUUCCCCUGAUAGUGCUAAGGGGGCCUGGAAGUUUGGACUGGGCAGAGCUCAACACAGCGUUGCAAGGUGGCUGUGGCUAGACUGCCUCUCUGGAUUCCUCGUCACUCAGCAGGGCAUCUCUGAGAGAAAUGCC [G11A G74U A79G] was 1.01; that for UACGUAGGUGGUUUUCCCCUGAUAGUGCUAAGGGGGCCUGGAAGUUAGGACUGGGCAGAGCUCAACACAGCGUGGCCAAGUGGCUGUGGCUAGACUGCCUCUCUGGAUUCCUCGUCACUCAGCAGGGCACCUCUGAGAGAAAUGCC [U47A A77C U130C] was 0.93. Next, UACAUAGGUGGUUUUCCCCUGAUAGUGCUAAGGGGGCCUGGAAGUUUGGACUGGGCAGAGCUCAACACAGCGUGGCAAAGUGGCUGUGGCUUGACUGCCUCUCUGGAUUCCUCGUCACUCAGCAGGGCAUCUCUGAGAGAAACACC [G4A A92U U143C G144A]: 0.99. The value for UACGUAGGCGGAUUUCCCCUGAUAGUGCUAAGGGGGCCUGGAAGUUUGGACUGGGCAGAGCUCAACACAGCGUGGCAAAGUGGCUGUGGCUAGACUGCCUCUCUGGAUUCCUCGUCACACAGCAGGGCAUCUCUGAGAGAAAUGCC [U9C U12A U119A] was 0.94; that for UACGUAGGUGGUUUUCCCCUGACAGUGCUGAGGGGGCCUGGAAGUAUGGACUGGGCAGAGCUCAACACAGCGUGGCAAAGUGGCUGUGGCUAGACUGCCUCUCUGGAUUCCUCGUCCCACAGCAGGGCAUCUCUGAGAGAAAUGCC [U23C A30G U46A A117C U119A] was 2.01; that for UACGUAGGUGGUUUUCCCCUGAUAGUGCUAGGGGGGCCUGGAAGUUUGGACUGGGCAGAGCUCAACACAGCGUGGCAAGGUGGCUGUGGCUAGACUGCCUCUCUGGAUCCCUCGUCACUCAGCAGGGCAUCUCUGAGAGAAAUGCC [A31G A79G U109C] was 1.64. Turning to UACGUAGGUGGUUUUCCCCUGAUAGUGCUAAAGGGGCCUGGAAGUUUGGACUUGGCAGAGCUCAACACAGCGUGGCAAAGUGGCUGUGGCUAGACUGCCUCUCUGGAUUCCUCGUCACUCUGCAGGGCAUCUCUGAGAGAAAUGCC [G32A G53U A121U], the self-cleavage came to 2.06. Take UACGUAGGUGGUUUUCCCCUGAUAGGGCUAAGGGGGCCUGGAAGUUUGGACAGGGCAGAGCUCAACACAGCGUGGCAAAGUGGCUGUGGCUAGACUGCCUCUCUGGAUUCCCCGUCACUCAGCAAGGCAUCUCUGAGAGAAAUGCC [U26G U52A U112C G125A]: the self-cleavage was 1.07. The value for UACGUAGGUGGUUUUCCCCUGAUAGUGCUAGGGGGGCCUGGAAGUUUGGACUGGGCAGAGCUCAUCACAGCGUGGCAAAGUGGCUGUGGCUAGACUGCCUCUCUGGAUUCCUCGUCACUCAGCAGGGCAUCUCUGAGAGAGAUGCC [A31G A65U A141G] was 0.61; that for UACGUAGGUGGUUUUCCCCCGGUAGUGCUAAGGGGGCCUGGAAGUUUGGACUGGGCAGAGCUCAACACAGCGUGGCAAAGUGGCUGUGGCUAGACUGCCUCUCUGGAUUUCUCGUCACUCAGCAGGGCAUCUCUGAGAGAAAUGCC [U20C A22G C110U] was 0.83; that for UACGUAGGUGGUUUUCACCUGGUAGUGCUAAGGGGGCCUGGAAGUUUGGACUGGGCAGAGCCCAACACAGCGUGGCAAAGUGGCUGUGGCUAGACUGCCUCUCUGGAUUCCUCGUCACUCAGCAGGGCAUCUCUGAGAGAAAUGCC [C17A A22G U62C] was 0.25.

For UACGUAGGUGGCUUUCCCCUGAUAGUGCUAAGGGGUCCUGGAAGUUUGGACUGGGCAGAGCUCAACACAGCGUGGCAAAGUGGCUGUGGCUAGACUGCCUCUCUGGAUUCCUCGUCGCUCAGCAGGGCAUCUCUGAGAGAAAUGCC [U12C G36U A117G], the self-cleavage worked out at 2.6. Turning to UACGUAGGUGGUUUUCCCCUGAUAGUGCUAAGGGGGCCUGGAAGUUUGGACUGGGCAGAGCUCGACACAGCGUGGCAAAGUGGCUGGGGCUGGACUGCCUCUCUGGAUUCCUCGUCACUCAGCAGGGCAUCUCUGAGAGAAAUGCC [A64G U87G A92G], the self-cleavage is 0.46. The value for UACGUAGGAGGUUUUCCCCUGAUAGUGCUAAGGGGGCCUGGAAGUUUGGACUGGGCAGAGCUCAACGCAGCGUGGCAAAGAGGCUGUGGCUAGACUGCCUCUCUGGAUUCCACGUCACUCAGCAGGGCAUCUCUGAGAGAAAUGCC [U9A A67G U81A U112A] was 0.41. For the variant UACGUAGGUGGUCUUCCCCUGAUAGUGCUAAGGGGGCCUGGAAGUUUGGACUGGGCAGAGCUCAACACAGCGUGGCAAAGUGGCUGUGGCUAGGCUGCCUCUCUGGAUUCCUCGUCACUCAGCAGGGCAUCUCUGAGAGAAGUGCC [U13C A94G A142G], the self-cleavage was 0. Next, UACGUGGGUGGUUUUCCCCUGAUAGUGCUAAGGGGGCCCGGAAGUUUGGACUGGGCAGAGCUCCACACAGCGUGGCAAAGUGGCUGUGGCUAGACUGCCUCUCUGGAUUCCUCGUCACUCAGCAGGGCAUCUCUGAGAGAAAUGCC [A6G U39C A64C]: 0; UACGUAGGUGGUUUUCCCCUGAUAGUGCUAAGGGGGCCUGGAAGUUUGGACUGGGCAGAGCUCAACACUGCGUGGCAAAGUGGCUGUGGCUGGACUGCCUCUCUGGAUUCCUCGUCACUCUGCAGGGCAUCUCUGAGAGAAAUGCC [A69U A92G A121U]: 0.06.

As for UACGUAGGAGGUUUUCCCCUGAGAGUGCUAAGGGGGCCUGGAAGUUUGGACUGGGCAGAGCUCAACACAGCGUGGCAAAGUGGCUGUGGCUAGACUGCCUCUCUGGAUUCCUCGUCACUCAUCAGGGCAUCUCUGAGAGAAAUGCC [U9A U23G G122U], the self-cleavage was determined as 1.06. The value for UACGUAGGUGGUUUUCCCCUGAUAGUGCUAAGGGGGCCUGGAAGUUCGGACUGGGCAGAGCUCAACACAGCGUGGCAAGGUGGCAGUGGCUAGACUGCCUCUCUGGAUUCCUCGUCACUCAGCAGGGCAUCUCUGAGAGAAAUGCC [U47C A79G U85A] was 0.22; that for UACGUAGGUGGUCUUCCCCUGAUAGUGCUAAGGGGGCCUGGAAGUCUGGACUGGGCAGAGCUCAACACAGCGUGGCAAGGUGGUUGUGGCUAGACUGCCUCUCUGGAUUCCUCGUCACUCAGCAGGGCAUCUCUGAGAGAAAUGCC [U13C U46C A79G C84U] was 0.22.

The values are drawn from the RNAGym collection of RNA variant scans (doi:10.7554/elife.90254).
